# In publication PMC4336329 (PLoS ONE, 2015):
# The campaign covered roughly 310,000 compounds. About 2,200 (0.71%) showed an effect of 50% or more. The effect is printed as a negative number. This is one part of the list.
# Target: human ether-à-go-go-related gene (hERG) potassium channel (human, UniProt Q12809)
# Experiment: primary screen, population patch clamp on CHO cells stably expressing hERG
# Chain of human ether-à-go-go-related gene (hERG) potassium channel (Q12809 whole entry, looked up): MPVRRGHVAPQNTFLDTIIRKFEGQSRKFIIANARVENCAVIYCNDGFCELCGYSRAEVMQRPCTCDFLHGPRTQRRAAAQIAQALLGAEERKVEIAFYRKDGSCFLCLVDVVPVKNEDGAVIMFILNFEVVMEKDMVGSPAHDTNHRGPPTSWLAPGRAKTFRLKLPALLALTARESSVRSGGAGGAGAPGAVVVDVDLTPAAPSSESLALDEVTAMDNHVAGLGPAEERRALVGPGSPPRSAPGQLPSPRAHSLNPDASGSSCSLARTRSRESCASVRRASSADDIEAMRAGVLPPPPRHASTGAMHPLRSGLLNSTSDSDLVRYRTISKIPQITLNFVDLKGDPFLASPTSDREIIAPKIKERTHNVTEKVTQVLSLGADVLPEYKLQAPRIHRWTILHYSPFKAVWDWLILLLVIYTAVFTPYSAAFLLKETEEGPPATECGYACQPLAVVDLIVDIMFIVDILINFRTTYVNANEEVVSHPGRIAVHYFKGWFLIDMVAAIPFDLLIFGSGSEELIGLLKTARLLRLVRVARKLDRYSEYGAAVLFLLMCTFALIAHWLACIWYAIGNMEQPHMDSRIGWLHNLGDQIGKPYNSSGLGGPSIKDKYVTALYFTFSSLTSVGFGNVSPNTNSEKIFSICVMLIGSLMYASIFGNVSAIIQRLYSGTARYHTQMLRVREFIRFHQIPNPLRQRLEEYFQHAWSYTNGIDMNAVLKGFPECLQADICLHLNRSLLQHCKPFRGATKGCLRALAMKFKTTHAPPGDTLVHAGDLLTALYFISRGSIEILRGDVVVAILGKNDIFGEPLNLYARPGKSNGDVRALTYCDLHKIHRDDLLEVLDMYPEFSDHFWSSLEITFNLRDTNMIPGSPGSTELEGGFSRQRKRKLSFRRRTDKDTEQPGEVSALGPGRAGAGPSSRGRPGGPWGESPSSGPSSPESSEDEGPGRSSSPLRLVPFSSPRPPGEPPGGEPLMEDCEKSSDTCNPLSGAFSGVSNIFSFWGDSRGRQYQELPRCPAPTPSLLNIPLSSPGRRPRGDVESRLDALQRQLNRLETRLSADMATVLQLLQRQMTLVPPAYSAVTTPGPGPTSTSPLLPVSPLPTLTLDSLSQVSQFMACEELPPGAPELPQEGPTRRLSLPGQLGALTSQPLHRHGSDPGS
row,SMILES,"hERG current change (%, negative = inhibition) at 1uM [%]"
1,O=C1OC(c2ccc(F)cc2)=N/C1=C\c1ccc(Br)o1,6.32
2,CC(C(=O)Nc1ccccc1)N(c1cccc(Cl)c1)S(C)(=O)=O (stereo not drawn),9.74
3,CCC(C)(C)n1nnnc1C(c1ccc2ncccc2c1)N1CCCCCC1 (stereo not drawn),10
4,COc1cc(OC)cc(C(=O)Nc2ccc(S(=O)(=O)N(C)C)cc2)c1,7.17
5,Cc1csc(NC(=O)C(Cl)c2ccccc2)n1.O=C(O)C(Cl)c1ccccc1 (stereo not drawn),13.5
6,O=C(OCC(=O)N1CCCc2ccccc21)c1ccc(F)c(S(=O)(=O)N2CCOCC2)c1,10.8
7,Cc1ccnc(NC(=O)CCC(=O)N(CC(=O)NCc2ccc(F)cc2)c2ccc(F)cc2)c1,11.1
8,CN(C(=O)C1CCC(=O)N(CCCN2CCCC2=O)C1)C(C1CC1)C1CC1 (stereo not drawn),15.4
9,CC1(C)OC(=O)N(CC(=O)Nc2cccc(C(F)(F)F)c2)C1(C)O (stereo not drawn),12.8
10,CCCc1c(C)c(C#N)c2nc3ccccc3n2c1NCCCN1CCOCC1,-20.5
11,O=C(c1ccccn1)C1CCCN(Cc2nc(Cc3cccc(F)c3)no2)C1 (stereo not drawn),7.35
12,O=C(NC1=NCCS1)c1cccc(Br)c1,8.54
13,O=C(CCN1C(=O)/C(=C/c2ccccc2Cl)SC1=S)NC1CCS(=O)(=O)C1 (stereo not drawn),10.3
14,Oc1ccc(/C=N/NC(=S)Nc2cccnc2)c(O)c1,7.17
15,N/C(=N\OC(=O)N1CCOCC1)c1ccc(Cl)cc1,18.2
16,O=Cc1cn(Cc2ccc(F)cc2Cl)c2ccccc12,4.54
17,CCC(=O)Nc1cc(-c2nn(C)c(=O)c3ccccc23)ccc1N1CCOCC1,10.3
18,CCn1cc(S(=O)(=O)CC(=O)N2CCc3ccccc32)c2ccccc21,-3.09
19,Cc1ccc(N(C(C)C(=O)Nc2cccc(N(C)S(C)(=O)=O)c2)S(C)(=O)=O)cc1 (stereo not drawn),11.4
20,CC(=O)c1ccc(C(=O)N(CCN(C)C)c2nc3c(Cl)cccc3s2)cc1.Cl,-3.91
21,CC(=O)N1N=C(c2ccccc2)OC12CCCC2,8.91
22,CCN(CC)S(=O)(=O)c1ccc(OC)c(NC(=O)c2ccc(=O)[nH]c2)c1,6.5

row,SMILES,"hERG current change (%, negative = inhibition) at 1uM [%]"
1,COC(=O)CC(=O)c1ccc2c(c1)OCO2,11.6
2,COc1ccc(C(C)C)cc1S(=O)(=O)N1CCN(c2ccccc2)CC1,16.8
3,Cc1ccc(N2CCN(/N=C/c3c(C)nn(-c4ccccc4)c3Cl)CC2)cc1,10.8
4,CCc1cc(=O)oc2cc(C)c(CN3CCCC(C)C3)c(O)c12 (stereo not drawn),0.527
5,CCc1noc(C)c1C(=O)N1CCC(CCC(=O)Nc2cccc(C)c2)CC1,-8.05
6,Cn1c(SCC(=O)c2ccc(F)cc2)nnc1-c1ccccc1N,14.5
7,CCc1cc2c(C)ccc(C)c2nc1SCC(=O)Nc1c[nH]c(=O)[nH]c1=O,5.61
8,CC(=O)c1cccc(CN2CCCC(CCC(=O)NCc3ccc(C)o3)C2)c1 (stereo not drawn),9.01
9,O=C(Nc1cc2c(cc1Cl)OCCO2)c1ccco1,14.6
10,Cc1cnc(C(=O)OCC(=O)N(C)CC(=O)Nc2ccccc2Cl)cn1,9.35
11,Clc1ccccc1Cc1noc(CN2CCCCC2CCc2ccccn2)n1 (stereo not drawn),-3.35
12,CCn1ccnc1CN1CCCC(C(=O)c2ccc3c4c(cccc24)CC3)C1 (stereo not drawn),-4.34
13,COCCn1c(SCC(=O)N2CC(=O)Nc3ccccc32)nc2ccccc2c1=O,-3.74
14,Oc1ccc(/C=C/c2cc(O)cc(O)c2)cc1,3.24
15,COC(=O)c1ccc(CNC(=O)c2cc(COc3cncc(Cl)c3)on2)cc1,17.2
16,CC(C)CCNC(=O)C12CN(Cc3ccccc3)CC1C(c1ccc([N+](=O)[O-])cc1)=NO2 (stereo not drawn),-12.7
17,CC(C)(C)OC(=O)N1CCN(C(=O)c2[nH]cnc2C(=O)Nc2ccon2)CC1,12.3
18,CN(C)c1cccc2c1c(NC(=O)Nc1ccc(F)cc1F)nn2C,8.86
19,Cc1cccc(NC(=O)c2ccccc2NC(=O)c2ccco2)c1,0.671
20,NCCCC[C@@H](C(=O)N1CCNCC1)n1cc([C@@H](N)CC(N)=O)nn1,6.56
21,CC1CCN(C(c2nnnn2CCc2ccccc2)C(C)C)CC1 (stereo not drawn),0.875
22,c1cncc(C2CC(c3cccs3)n3ncnc3N2)c1 (stereo not drawn),9.93

row,SMILES,"hERG current change (%, negative = inhibition) at 1uM [%]"
1,CN(C(=O)COC(=O)c1c[nH]c(=O)[nH]c1=O)C1CCCCC1,-2.51
2,CC(C)OCCCN1CN(S(=O)(=O)c2ccc(Cl)cc2)c2nc3ccccc3nc21,13.8
3,COc1ccc(-c2ccc(=O)n(CC(=O)Nc3ccc4c(c3)OCCO4)n2)cc1,17.9
4,O=C(COc1ccccc1F)NNC(=O)Cn1c(=O)cnc2ccccc21,10.8
5,Cc1ccccc1-n1nnnc1SCC(=O)NCC1CCCO1 (stereo not drawn),9.06
6,Cn1cnnc1Sc1ccc(/C=C(\CCC(=O)O)c2nc3ccccc3s2)cc1[N+](=O)[O-],6.87
7,COc1cc(CN2CCN(c3ccccc3F)CC2)c([N+](=O)[O-])cc1OC,0.56
8,O=C(CN1C(=O)CCS(=O)(=O)c2ccccc21)Nc1ccccc1F,6.63
9,CC(C)(C)C(=O)Nc1cccc(-c2nnc(-c3cccc(NC(=O)C(C)(C)C)c3)o2)c1,4.48
10,Cc1ccc(NC(=O)CSc2nccn2C)cc1S(=O)(=O)N1CCOCC1,6.45
11,CN1CCC(=NNC(=O)c2cc(-c3ccc(Cl)cc3)n[nH]2)CC1,2.03
12,CC1(OC(=O)CCc2ccccc2)C(=O)C=C2C=C(c3ccc(C#N)cc3)N(CCc3c[nH]c4ccccc34)C=C2C1=O (stereo not drawn),12.3
13,COc1ccccc1NC(=O)NS(=O)(=O)c1ccc(C)cc1,13.3
14,O=c1c2c(-c3cccs3)csc2ncn1-c1ccc(Br)cc1,-2.84
15,Cc1ccccc1S(=O)(=O)c1c(C)cc(-c2ccccc2)[nH]c1=O,-0.185
16,CCN(CC)c1ccc(/C=N/NC(=O)c2cccc(S(=O)(=O)N3CCOCC3)c2)cc1,-4.35
17,CC1=CC(C)(C)Nc2ccc(OS(=O)(=O)c3ccc(C)cc3)cc21,-1.08
18,S=C(Nc1ccccc1)N1CCOCC1,10.7
19,COc1cc(NC(=O)Nc2cc(C)on2)cc(OC)c1OC,13.3
20,CCOC(=O)c1cc(NC(=O)c2cccs2)ccc1N1CCOCC1,-1.73
21,COc1ccc(C(=O)NN2C(=O)C3CCC(C)(C2=O)C3(C)C)cc1 (stereo not drawn),5.32
22,CC(C)CCNC(=O)NC(=O)COC(=O)/C=C/c1cnc2ccccc2n1,2.97

row,SMILES,"hERG current change (%, negative = inhibition) at 1uM [%]"
1,CN1C(=O)C(=O)/C(=C(/O)c2ccc(Br)cc2)C1c1ccc(Cl)cc1 (stereo not drawn),14.5
2,COc1ccccc1NC(=O)c1nn(-c2ccc(F)c(F)c2)ccc1=O,7.47
3,C/C(=N\NC(=O)c1ccc(OC2OCCOC2Oc2ccc(C(=O)N/N=C(\C)c3ccncc3)cc2)cc1)c1ccncc1 (stereo not drawn),3.2
4,C=C1CCC[C@]2(C)C[C@H]3OC(=O)C(CNCCN(C)C)[C@H]3CC12 (stereo partly drawn),2.03
5,CCOc1ccc(-c2[nH]nc3c2C(c2cccnc2)C(C#N)=C(N)O3)cc1 (stereo not drawn),0.726
6,Cc1onc(NC(=O)CSCC(=O)O)c1Br,11.1
7,CCOc1ccc(-c2onc(C(F)(F)F)c2-c2cscn2)c(O)c1,2.68
8,CSc1ccc(S(=O)(=O)N(C)Cc2ccccc2)cc1,11.6
9,CN(C)N1C(=O)/C(=C/c2ccco2)SC1=Nc1ccccc1,15.8
10,CC(=O)N1CC(C)Oc2ccc(S(=O)(=O)NC(CC(=O)O)c3ccccc3)cc21 (stereo not drawn),14.8
11,Cc1ccccc1COc1ccc(/C(O)=C2/C(=O)C(=O)N(CCCn3ccnc3)C2c2ccco2)cc1 (stereo not drawn),12.7
12,COc1ccc(S(=O)(=O)N2CCOCC2)cc1N=Nc1sc(N)nc1-c1ccccc1,4.15
13,Cc1cc(C(=O)CSc2nnc(-c3ccccc3F)o2)c(C)n1Cc1cccs1,-5.3
14,Cc1cc(C(=O)N/N=C/c2ccc([N+](=O)[O-])cc2)c(C)o1,5.5
15,CCOC(=O)CCc1n[nH]c(=O)[nH]c1=O,5.05
16,COc1ccc(CNC(=O)CSCc2cnn(-c3ccccc3)c2-n2cccc2)cc1,-10.6
17,CCCCC(=O)Nc1nnn(CCC)n1,13.1
18,COc1ccc(/C=N\NC(=O)c2ccc(F)cc2)cc1COc1ccccc1C(N)=O,-7.94
19,CC(=NCCN1CCCCC1)c1c(O)n(Cc2ccccc2)c(=O)[nH]c1=O,-4.59
20,O=C(Cn1c(=O)c2cccn2c2ccccc21)NCc1cccc(F)c1,10.2
21,COc1c(C(C)C)cc(NC(C)=O)cc1C(C)C,8.49
